The other results are listed elsewhere or left out.
What was measured:
Assay in all cases: glycan array binding signal (z-score within array); higher = stronger binding
Settings in all cases: glycan notation: IUPAC condensed, linker removed
Kdn(a2-3)Gal(b1-4)Glc = molecular target: Kdn(a2-3)Gal(b1-4)Glc
Summary of the method: (§1)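 The binding signal is a Z-score computed within each array and averaged over linkers. Arrays of the same protein sequence at different concentrations or buffers were also averaged together. Data originate from 3228 arrays in the Consortium for Functional Glycomics database, kept only where the protein sequence was available.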

Kdn(a2-3)Gal(b1-4)GlcNAc = molecular target: Kdn(a2-3)Gal(b1-4)GlcNAc
Summary of the method: as §1

[1] = molecular target: Kdn(a2-3)Gal(b1-4)[Fuc(a1-3)]GlcNAc
Summary of the method: as §1

Kdn(a2-6)Gal(b1-4)GlcNAc = molecular target: Kdn(a2-6)Gal(b1-4)GlcNAc
Summary of the method: as §1

[2] = molecular target: Man(a1-2)Man(a1-2)Man(a1-3)Man
Summary of the method: as §1

[3] = molecular target: Man(a1-2)Man(a1-2)Man(a1-3)[Man(a1-2)Man(a1-3)[Man(a1-2)Man(a1-6)]Man(a1-6)]Man(b1-4)GlcNAc(b1-4)GlcNAc
Summary of the method: as §1

[4] = molecular target: Man(a1-2)Man(a1-2)Man(a1-3)[Man(a1-2)Man(a1-6)[Man(a1-3)]Man(a1-6)]Man(b1-4)GlcNAc(b1-4)GlcNAc
Summary of the method: as §1

[5] = molecular target: Man(a1-2)Man(a1-2)Man(a1-6)[Man(a1-3)]Man
Summary of the method: as §1

Man(a1-2)Man(a1-3)Man = molecular target: Man(a1-2)Man(a1-3)Man
Summary of the method: as §1

[6] = molecular target: Man(a1-2)Man(a1-3)[Man(a1-2)Man(a1-6)]Man
Summary of the method: as §1

[7] = molecular target: Man(a1-2)Man(a1-3)[Man(a1-2)Man(a1-6)]Man(a1-6)[Man(a1-2)Man(a1-2)Man(a1-3)]Man
Summary of the method: as §1

[8] = molecular target: Man(a1-2)Man(a1-3)[Man(a1-2)Man(a1-6)]Man(a1-6)[Man(a1-2)Man(a1-2)Man(a1-3)]Man(b1-4)GlcNAc(b1-4)GlcNAc
Summary of the method: as §1

[9] = molecular target: Man(a1-2)Man(a1-3)[Man(a1-3)[Man(a1-6)]Man(a1-6)]Man(b1-4)GlcNAc(b1-4)GlcNAc
Summary of the method: as §1

[10] = molecular target: Man(a1-2)Man(a1-3)[Man(a1-6)]Man(a1-6)[Man(a1-2)Man(a1-3)]Man(b1-4)GlcNAc(b1-4)GlcNAc
Summary of the method: as §1

[11] = molecular target: Man(a1-2)Man(a1-6)[Man(a1-3)]Man(a1-6)[Man(a1-2)Man(a1-2)Man(a1-3)]Man
Summary of the method: as §1

[12] = molecular target: Man(a1-2)Man(a1-6)[Man(a1-3)]Man(a1-6)[Man(a1-2)Man(a1-2)Man(a1-3)]Man(b1-4)GlcNAc(b1-4)GlcNAc
Summary of the method: as §1

Man(a1-3)[Man(a1-6)]Man = molecular target: Man(a1-3)[Man(a1-6)]Man
Summary of the method: as §1

[13] = molecular target: Man(a1-3)[Man(a1-6)]Man(a1-6)[Man(a1-2)Man(a1-3)]Man(b1-4)GlcNAc(b1-4)GlcNAc
Summary of the method: as §1

[14] = molecular target: Man(a1-3)[Man(a1-6)]Man(a1-6)[Man(a1-3)]Man
Summary of the method: as §1

[15] = molecular target: Man(a1-3)[Man(a1-6)]Man(a1-6)[Man(a1-3)]Man(b1-4)GlcNAc(b1-4)GlcNAc
Summary of the method: as §1

[16] = molecular target: Man(a1-3)[Man(a1-6)]Man(b1-4)GlcNAc(b1-4)GlcNAc
Summary of the method: as §1

[17] = molecular target: Man(a1-3)[Man(a1-6)]Man(b1-4)GlcNAc(b1-4)[Fuc(a1-6)]GlcNAc
Summary of the method: as §1

Man(a1-6)Man = molecular target: Man(a1-6)Man
Summary of the method: as §1

Man(b1-4)GlcNAc = molecular target: Man(b1-4)GlcNAc
Summary of the method: as §1

MurNAc(b1-4)GlcNAc = molecular target: MurNAc(b1-4)GlcNAc
Summary of the method: as §1

Neu5Ac(a2-3)Gal = molecular target: Neu5Ac(a2-3)Gal
Summary of the method: as §1

[18] = molecular target: Neu5Ac(a2-3)Gal(b1-3)GalNAc
Summary of the method: as §1

[19] = molecular target: Neu5Ac(a2-3)Gal(b1-3)GalNAc(b1-3)Gal(a1-4)Gal(b1-4)Glc
Summary of the method: as §1

[20] = molecular target: Neu5Ac(a2-3)Gal(b1-3)GalNAc(b1-3)Gal(b1-4)GlcNAc
Summary of the method: as §1

[21] = molecular target: Neu5Ac(a2-3)Gal(b1-3)GalNAc(b1-4)[Neu5Ac(a2-3)]Gal(b1-4)Glc
Summary of the method: as §1

[22] = molecular target: Neu5Ac(a2-3)Gal(b1-3)GalNAc(b1-4)[Neu5Ac(a2-8)Neu5Ac(a2-3)]Gal(b1-4)Glc
Summary of the method: as §1

[23] = molecular target: Neu5Ac(a2-3)Gal(b1-3)GalNAc6S
Summary of the method: as §1

[24] = molecular target: Neu5Ac(a2-3)Gal(b1-3)GlcNAc
Summary of the method: as §1

[25] = molecular target: Neu5Ac(a2-3)Gal(b1-3)GlcNAc(b1-2)Man
Summary of the method: as §1

[26] = molecular target: Neu5Ac(a2-3)Gal(b1-3)GlcNAc(b1-2)Man(a1-3)[GlcNAc(b1-4)][Neu5Ac(a2-3)Gal(b1-3)GlcNAc(b1-2)Man(a1-6)]Man(b1-4)GlcNAc(b1-4)GlcNAc
Summary of the method: as §1

[27] = molecular target: Neu5Ac(a2-3)Gal(b1-3)GlcNAc(b1-2)Man(a1-3)[Neu5Ac(a2-3)Gal(b1-3)GlcNAc(b1-2)Man(a1-6)]Man(b1-4)GlcNAc(b1-4)GlcNAc
Summary of the method: as §1

[28] = molecular target: Neu5Ac(a2-3)Gal(b1-3)GlcNAc(b1-3)Gal(b1-3)GlcNAc
Summary of the method: as §1

[29] = molecular target: Neu5Ac(a2-3)Gal(b1-3)GlcNAc(b1-3)Gal(b1-4)GlcNAc
Summary of the method: as §1

B1: UEA-I (Ulex europaeus), P22972 (protein)
chain: SDDLSFKFKNFSQNGKDLSFQGDASVIETGVLQLNKVGNNLPDETGGIARYIAPIHIWNCNTGEVASFITSFSFFMETSANPKAATDGLTFFLAPPDSPLRRAGGYFGLFEDTKDNDSSYQTVAVEFDTIGSPVNFDDPGFPHIGIDVNRVKSINAERWNKRYGLNNVANVEIIYEASSKTLTASLTYPSDQTSISVTSIVDLKEILPEWVSVGFSGGTYIGRQATHEVLNWYFTSNLINTNS
**Q.** Which “glycan array binding signal (z-score)” value (Kdn(a2-3)Gal(b1-4)Glc) does the source give for B1 here?
**A.** -0.155

**Q.** What about the “glycan array binding signal (z-score)” value (Kdn(a2-3)Gal(b1-4)GlcNAc) of the same binder?
**A.** -0.192

**Q.** What about the “glycan array binding signal (z-score)” value [1] of the same binder?
**A.** -0.105

**Q.** And the “glycan array binding signal (z-score)” value (Kdn(a2-6)Gal(b1-4)GlcNAc)?
**A.** -0.189

**Q.** And the “glycan array binding signal (z-score)” value [2]?
**A.** -0.169

**Q.** What about the “glycan array binding signal (z-score)” value [3] of the same binder?
**A.** -0.378

**Q.** What about the “glycan array binding signal (z-score)” value [4] of the same binder?
**A.** -0.469

**Q.** What about the “glycan array binding signal (z-score)” value [5] of the same binder?
**A.** -0.187

**Q.** What about the “glycan array binding signal (z-score)” value (Man(a1-2)Man(a1-3)Man) of the same binder?
**A.** -0.212

**Q.** And the “glycan array binding signal (z-score)” value [6]?
**A.** -0.194

**Q.** What about the “glycan array binding signal (z-score)” value [7] of the same binder?
**A.** -0.191

**Q.** What about the “glycan array binding signal (z-score)” value [8] of the same binder?
**A.** -0.158

**Q.** What about the “glycan array binding signal (z-score)” value [9] of the same binder?
**A.** -0.419

**Q.** What about the “glycan array binding signal (z-score)” value [10] of the same binder?
**A.** -0.133

**Q.** And the “glycan array binding signal (z-score)” value [11]?
**A.** -0.061

**Q.** What about the “glycan array binding signal (z-score)” value [12] of the same binder?
**A.** -0.202

**Q.** What about the “glycan array binding signal (z-score)” value (Man(a1-3)[Man(a1-6)]Man) of the same binder?
**A.** -0.186

**Q.** And the “glycan array binding signal (z-score)” value [13]?
**A.** -0.013

**Q.** And the “glycan array binding signal (z-score)” value [14]?
**A.** -0.125

**Q.** And the “glycan array binding signal (z-score)” value [15]?
**A.** -0.18

**Q.** What about the “glycan array binding signal (z-score)” value [16] of the same binder?
**A.** -0.183

**Q.** And the “glycan array binding signal (z-score)” value [17]?
**A.** -0.224

**Q.** What about the “glycan array binding signal (z-score)” value (Man(a1-6)Man) of the same binder?
**A.** -0.097

**Q.** What about the “glycan array binding signal (z-score)” value (Man(b1-4)GlcNAc) of the same binder?
**A.** -0.166

**Q.** And the “glycan array binding signal (z-score)” value (MurNAc(b1-4)GlcNAc)?
**A.** -0.174

**Q.** What about the “glycan array binding signal (z-score)” value (Neu5Ac(a2-3)Gal) of the same binder?
**A.** -0.214

**Q.** And the “glycan array binding signal (z-score)” value [18]?
**A.** -0.245

**Q.** What about the “glycan array binding signal (z-score)” value [19] of the same binder?
**A.** -0.164

**Q.** And the “glycan array binding signal (z-score)” value [20]?
**A.** -0.245

**Q.** What about the “glycan array binding signal (z-score)” value [21] of the same binder?
**A.** -0.251

**Q.** And the “glycan array binding signal (z-score)” value [22]?
**A.** -0.163

**Q.** And the “glycan array binding signal (z-score)” value [23]?
**A.** -0.189

**Q.** And the “glycan array binding signal (z-score)” value [24]?
**A.** -0.234

**Q.** What about the “glycan array binding signal (z-score)” value [25] of the same binder?
**A.** -0.19

**Q.** What about the “glycan array binding signal (z-score)” value [26] of the same binder?
**A.** -0.182

**Q.** And the “glycan array binding signal (z-score)” value [27]?
**A.** -0.027

**Q.** And the “glycan array binding signal (z-score)” value [28]?
**A.** -0.177

**Q.** And the “glycan array binding signal (z-score)” value [29]?
**A.** -0.274
